# In the supplement of paper PMC7826260:
# Some of the results follow. The data describe in vitro nicking of single-stranded DNA by Rep domains at 3 µM enzyme and 37 °C for 1 h; the strands have 90 letters, of which the middle is given. Uncut reads are compared with the no-enzyme pool on a log2 scale; strong cutting gives strongly negative numbers. There is no active / inactive call. Reads are scaled to the total; values above 0 arise when much of the pool is cut.
# What was measured:
# Assay in all cases: uncleaved DNA left, log2 of reads against the no-enzyme library (log2 ratio); higher = less cleavage (more negative = more Rep cleavage of the k-mer); sequences stand for … in CTCGTCCG…ACCGGAGA
# [1] = test system: T1, Rep nickase domain of Muscovy duck circovirus
# T1 sequence (residues 1-111, tag not shown): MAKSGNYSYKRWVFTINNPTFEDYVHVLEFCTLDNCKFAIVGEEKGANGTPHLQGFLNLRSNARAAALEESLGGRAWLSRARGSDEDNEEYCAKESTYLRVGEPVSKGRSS
# Experimental: (§1)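 A pool of 90-nt single-stranded DNAs with seven random bases just before the constant AC of the nick site (name = the seven bases) was cut by 3 µM recombinant His6-SUMO-tagged Rep nickase domain (300 nM DNA, 50 mM HEPES pH 8.0, 50 mM NaCl, 1 mM MnCl2, 1 h, 37 °C, three replicates). Uncut DNA was amplified and sequenced.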
# [2] = test system: T2, Rep nickase domain of banana bunchy top virus
# T2 sequence (residues 1-94, tag not shown): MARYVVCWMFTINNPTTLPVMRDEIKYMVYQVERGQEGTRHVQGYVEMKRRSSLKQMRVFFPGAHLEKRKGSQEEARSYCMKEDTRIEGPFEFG
# Experimental: as §1
# [3] = test system: T3, Rep nickase domain of cabbage leaf curl virus
# T3 sequence (residues 1-116, tag not shown): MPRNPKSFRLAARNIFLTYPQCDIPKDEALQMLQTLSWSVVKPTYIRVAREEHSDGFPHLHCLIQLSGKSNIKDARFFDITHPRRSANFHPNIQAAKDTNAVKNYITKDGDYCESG
# Experimental: as §1
# [4] = test system: T4, Rep nickase domain of chickpea chlorotic dwarf virus
# T4 sequence (residues 1-124, tag not shown): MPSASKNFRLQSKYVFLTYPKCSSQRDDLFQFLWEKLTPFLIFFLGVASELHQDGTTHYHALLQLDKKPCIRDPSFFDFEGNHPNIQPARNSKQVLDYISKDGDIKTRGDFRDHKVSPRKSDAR
# Experimental: as §1
# [5] = test system: T5, Rep nickase domain of faba bean necrotic yellows virus
# T5 sequence (residues 1-98, tag not shown): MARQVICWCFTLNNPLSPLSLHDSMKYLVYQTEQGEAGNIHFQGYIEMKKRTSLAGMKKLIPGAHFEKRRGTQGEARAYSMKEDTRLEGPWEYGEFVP
# Experimental: as §1
# [6] = test system: T6, Rep nickase domain of maize striate mosaic virus
# T6 sequence (residues 1-117, tag not shown): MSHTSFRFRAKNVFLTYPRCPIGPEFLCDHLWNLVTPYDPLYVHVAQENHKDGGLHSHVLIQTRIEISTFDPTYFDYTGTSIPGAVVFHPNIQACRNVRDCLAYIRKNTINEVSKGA
# Experimental: as §1
# [7] = test system: T7, Rep nickase domain of porcine circovirus 2
# T7 sequence (residues 2-116, tag not shown): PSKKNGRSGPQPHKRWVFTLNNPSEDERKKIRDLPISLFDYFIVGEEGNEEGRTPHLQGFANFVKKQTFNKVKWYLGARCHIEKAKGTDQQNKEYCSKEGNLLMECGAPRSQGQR
# Experimental: as §1
# [8] = test system: T8, Rep nickase domain of tomato yellow leaf curl virus
# T8 sequence (residues 1-136, tag not shown): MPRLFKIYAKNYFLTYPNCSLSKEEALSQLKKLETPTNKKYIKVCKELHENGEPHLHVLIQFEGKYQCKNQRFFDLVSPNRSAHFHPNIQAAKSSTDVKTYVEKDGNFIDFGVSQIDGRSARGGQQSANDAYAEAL
# Experimental: as §1
# [9] = test system: T9, Rep nickase domain of wheat dwarf virus
# T9 sequence (residues 1-137, tag not shown): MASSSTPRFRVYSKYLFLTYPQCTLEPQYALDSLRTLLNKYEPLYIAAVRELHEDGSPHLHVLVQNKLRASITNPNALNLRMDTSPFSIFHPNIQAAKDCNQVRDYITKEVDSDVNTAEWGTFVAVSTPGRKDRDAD
# Experimental: as §1
Sequence,uncleaved DNA left (log2) [1],uncleaved DNA left (log2) [2],uncleaved DNA left (log2) [3],uncleaved DNA left (log2) [4],uncleaved DNA left (log2) [5],uncleaved DNA left (log2) [6],uncleaved DNA left (log2) [7],uncleaved DNA left (log2) [8],uncleaved DNA left (log2) [9]
TTTGCAA,0.04,0.153,-0.398,-0.41,0.0173,-1.02,0.235,0.0556,0.0901
TGTAGTC,0.0504,0.0285,0.327,0.419,0.0994,0.337,0.0743,0.0887,0.00327
ACCATCT,-0.0628,-0.063,-0.532,-2.32,0.0291,-1.09,-0.0229,-0.13,-0.145
AAAGAAT,0.118,0.0267,0.21,1.25,0.0303,1.64,0.207,-0.0502,0.13
ATAATGG,0.127,-0.0185,-0.168,0.129,0.0281,-0.753,0.0868,0.02,-0.0073
TGTCTTA,-0.0875,-0.203,0.119,-0.21,-0.0993,0.627,-0.181,-0.0209,-0.0185
AGTTGTG,0.0466,0.0134,-0.652,0.264,0.0294,-0.766,0.08,0.164,-0.00962
GGGTATC,0.0432,0.0514,0.739,1.85,0.0341,2.12,0.104,0.128,0.106
GCCTTAC,0.0587,-0.0498,-0.051,-0.593,-0.0881,0.193,0.0125,-0.155,0.0211
ATCCAAG,-0.0553,-0.0135,-0.802,-0.367,-0.0885,-1.05,0.0839,-0.0231,-0.0675
TTCGAAA,-0.196,-0.127,0.128,0.108,-0.075,-0.363,0.00829,-0.0646,-0.0323
TGAGATG,0.158,-0.0626,0.167,0.83,0.108,1.13,0.109,-0.0495,-0.0759
ATCGGGA,0.101,0.0395,0.475,0.817,0.0328,1.28,0.208,-0.0306,-0.00288
CAGGGGT,-0.156,-0.0559,0.153,1.27,-0.119,1.61,-0.0109,-0.0773,-0.113
ATTAACA,-0.0442,0.0595,-0.504,-2.22,-0.0512,-0.702,-0.036,0.0765,0.0809
CCTGCTA,-0.144,-0.0613,-0.257,-1,0.0158,-0.899,0.0437,-0.144,-0.275
CGAATCA,0.0613,0.256,0.31,-0.196,0.0481,0.364,0.163,0.282,0.354
CTAGCGT,0.0763,-0.0484,-0.79,-0.831,-0.000843,-0.951,0.0626,0.0593,0.0283
TAGTTGT,-1.46,-1.89,-1.18,-2.12,-0.572,-0.867,-4.06,-0.0489,-0.0809
GCCTCTA,0.093,0.201,0.0446,-0.116,-0.0786,0.316,-0.0383,-0.0757,0.142

Sequence,uncleaved DNA left (log2) [1],uncleaved DNA left (log2) [2],uncleaved DNA left (log2) [3],uncleaved DNA left (log2) [4],uncleaved DNA left (log2) [5],uncleaved DNA left (log2) [6],uncleaved DNA left (log2) [7],uncleaved DNA left (log2) [8],uncleaved DNA left (log2) [9]
TGCTATC,-0.0622,-0.019,0.271,0.207,-0.0231,0.344,-0.00394,-0.0505,0.0482
GGCAGTA,0.179,0.0913,0.634,1.32,0.0843,1.84,0.188,0.115,0.0745
AGTAATC,0.0301,0.00622,0.188,0.42,0.108,-0.19,-0.0368,0.0469,0.0178
GCCGAAT,-0.0216,0.0402,0.116,0.446,-0.097,0.604,-0.00797,-0.0592,0.0587
GACAGCT,-0.0153,-0.0708,0.00296,-0.864,-0.024,-0.211,-0.194,-0.0224,-0.02
ATATTGG,0.11,0.0486,-0.602,-0.532,0.159,-1.05,0.243,0.105,0.0779
TAAAAAA,-0.0304,0.00586,-0.957,-2.23,-0.0122,-0.603,0.0886,-0.101,-0.234
TAATACT,-5.19,-4.45,-5.44,-3.88,-2.94,-4.09,-5.15,-4.23,-5.29
CACCATC,0.167,0.18,-0.00428,-0.677,0.0824,-0.926,-0.134,0.0679,0.075
GGACTGA,-0.0519,0.0522,0.505,1.54,-0.117,2.09,0.187,-0.0481,0.134
ATTGTGC,0.0119,0.00759,-0.893,-0.264,-0.0289,-1.05,0.11,0.0798,-0.131
TACTCCT,-3.36,-2.57,-2.25,-3.17,-0.0959,-0.474,-3.58,-0.0882,-0.192
CCTACGG,-0.0519,0.0398,0.443,1.11,-0.0315,1.61,0.0515,-0.117,-0.0152
GTACCAG,-0.0823,-0.0175,-0.147,-0.153,-0.0539,-0.446,-0.168,-0.0507,0.00476
TCATTGG,0.0232,0.054,-0.726,-0.749,0.0909,-1.2,0.166,0.0909,-0.0855
TGAACGA,-0.0108,0.096,-0.00349,-0.121,-0.0408,-0.718,0.0698,0.0159,0.0776
CTCATTG,-0.0276,0.0872,-0.612,-0.455,0.24,-1.09,0.128,0.146,0.101
ATGAGCT,0.11,0.164,-0.128,-0.671,0.131,-0.628,0.145,0.147,-0.0224
AATCTTT,-0.13,-0.18,-0.797,-2.87,0.0793,-0.628,-3.19,0.0413,-0.0959
GCTAGTG,0.258,0.244,-0.315,-0.17,0.13,-0.691,0.416,0.285,0.265

Sequence,uncleaved DNA left (log2) [1],uncleaved DNA left (log2) [2],uncleaved DNA left (log2) [3],uncleaved DNA left (log2) [4],uncleaved DNA left (log2) [5],uncleaved DNA left (log2) [6],uncleaved DNA left (log2) [7],uncleaved DNA left (log2) [8],uncleaved DNA left (log2) [9]
AATACCA,-0.0339,0.0467,-0.0504,-1.91,-0.0717,0.0646,-0.332,-0.0271,0.0644
ACCGATC,0.0865,0.0626,-0.0483,0.0853,0.129,-0.584,0.196,0.0498,0.137
TAAATTG,0.0242,0.00366,-0.929,-2.45,0.0419,-1.45,0.0985,0.143,-0.136
TGGATAC,0.0286,0.0965,0.0599,0.578,-0.0815,-0.166,0.237,-0.0649,0.00192
AAAGGGC,0.0723,0.0633,0.168,0.569,0.03,0.131,0.0472,0.00452,0.0197
GATATGA,0.086,0.0642,0.302,0.689,0.0934,0.681,0.0737,-0.0119,0.0762
GAGGGCG,-0.00891,0.0499,-0.717,-0.118,0.0493,-0.62,0.155,0.0501,-0.16
CACCTAG,-0.175,-0.183,-0.807,-0.412,0.0203,-1.05,-0.0595,-0.0123,-0.148
TTCGGTC,-0.0595,0.11,0.393,0.244,0.0218,0.0739,0.139,0.149,0.0154
TTCGGAG,0.142,0.142,-0.0885,-0.408,-0.0123,-0.907,0.167,0.158,0.043
GAACCCG,-0.173,-0.0887,-0.814,-1.05,-0.0543,-0.917,-0.981,-0.0213,-0.205
GTCGTGG,-0.0693,-0.0267,0.249,0.716,-0.073,1.39,0.00516,-0.00629,-0.149
CGCGATG,-0.0243,0.0136,-0.145,0.48,-0.0888,1.44,-0.0659,-0.154,-0.0852
AGTACGG,0.142,0.151,0.314,1.06,0.154,1.56,0.117,-0.00398,0.0892
GAGTACC,0.107,0.154,0.417,0.489,-0.0328,1.28,-2.04,0.0683,0.21
GCCGAGA,0.0664,0.01,0.932,1.89,0.0204,2.2,0.323,0.0812,0.141
CAATTTC,-0.454,0.0826,-3.23,-3.02,0.0512,-1.89,-1.26,0.0623,-1.43
TAATTTG,-0.00774,-0.0414,-1.87,-2.52,0.145,-1.64,-0.00899,0.0387,-0.254
CCGACTG,-0.222,-0.0984,-0.00667,0.543,-0.0943,1.66,-0.0713,-0.281,-0.0308
CTTTTGC,0.0214,-0.151,-0.859,-0.681,-0.107,-1.35,0.0319,-0.032,-0.165
